Among all 340,000 compounds or so, about 12,000 (3.5%) were called active. Inconclusive means that the source gave no clear call. Such entries were picked first, then a sample of the others. Calls follow the shape of the dose curve; as a rule, active = well fitted inhibition curve with a large enough effect; inconclusive = small, poorly fitted or top-dose-only effect, or another doubt; inactive = no such curve, though single readings can be large or run the other way. Potencies of inconclusive entries are left out as doubtful fits.
experiment: qHTS Assay for Inhibitors of Hepatitis C Virus (HCV); conditions: Huh7.5.1 HCVcc-Cre (HCVcc is cell-culture hepatitis C virus) infection, luciferase reporter, 44 h; series mostly up to 41.8 µM
Outline: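 1,000 cells/well; 4 h culture; + compound; + HCVcc-Cre (~0.5 moi); 44 h; luciferase substrate, RT 15 min; read 15 sec.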
Potency is read from the fitted curve at half-maximal effect; tags tell the direction and shape of the fitted curve.

Row | SMILES | Potency
1 | C=CCn1c2ccccc2c2nnc(SCc3ccc4nonc4c3)nc21 | inconclusive [inhibitor, single point]
2 | CC1CCc2[nH]c3ccc(C(=O)O)cc3c2C1 (stereo not given) | inactive
3 | CC[C@H](CO)Nc1nc(Nc2cccc(Cl)c2)c2ncn(C(C)C)c2n1 | inconclusive [inhibitor, partial curve]
4 | Cc1nn(C)cc1/C=C1\CCC/C(=C\c2cn(C)nc2C)C1=O | active: 10 µM
5 | O=C(CCS(=O)(=O)c1ccc(Cl)cc1)Nc1cccc(S(=O)(=O)N2CCCCCC2)c1 | inconclusive [inhibitor, single point]
6 | COc1ccc(C(=O)C2CCCN(C(=O)CSC)C2)cc1OC (stereo not given) | inactive
7 | COC(=O)Cn1ncn2c(cc3oc(C)cc32)c1=O | inactive
8 | Cc1ccc(N(CN2CCCC2=O)C(=O)c2ccc(C)c(C)c2)cc1 | inconclusive [inhibitor, single point]
9 | O=C(Nc1ccc(N2CCCCC2)c(Cl)c1)c1ccc2c(c1)OCCO2 | active: 10 µM
10 | CCOC(=O)c1cc2c(=O)n3cccc(C)c3nc2n(CC(C)C)c1=NC(=O)c1ccco1 | inconclusive [inhibitor, partial curve]
11 | O=C(Cc1cccc2ccccc12)NNC(=O)Nc1ccc(Cl)cc1 | inconclusive [inhibitor, single point]
12 | CC(=O)Nc1ccc(CN(C)CC2CCCN(CCc3cccc(C(F)(F)F)c3)C2)cc1 (stereo not given) | active: 1.41 µM
13 | Oc1ccccc1-c1cc(-c2ccc(F)cc2)n[nH]1 | inconclusive [inhibitor, single point]
14 | OC(CN1CCOCC1)c1ccc(F)cc1 (stereo not given) | inactive
15 | Cc1cc(C)c(C(=O)CSc2n[nH]c(=O)n2C2CC2)cc1C | inconclusive [inhibitor, partial curve]
16 | O=C(CCNC(=O)c1ccccc1Cl)NNC(=O)c1ccccc1O | inconclusive [inhibitor, single point]
17 | COc1ccc(CCNC(=O)COC(=O)Cn2cnc3ccccc32)cc1OC | inactive
18 | CCNc1nc(Oc2ccc(C(=O)OC)cc2)nc(SC)n1 | inconclusive [inhibitor, single point]
19 | Cc1ccc(CN=c2c([N+](=O)[O-])nn(-c3ccc(Cl)cc3)n2O)cc1 | inconclusive [inhibitor, single point]
20 | CCOc1cc(N2CCOCC2)c(OCC)cc1NC(=O)Cn1nc(C)c([N+](=O)[O-])c1C | inconclusive [inhibitor, single point]
21 | Cc1ccc(-c2cc(-c3ccc(F)cc3)n[nH]2)c(O)c1 | active: 12.6 µM
22 | c1ccc(Cn2c(-c3ccco3)nc3nc4ccccc4nc32)cc1 | inconclusive [inhibitor, single point]
23 | COc1ccc(/C=C/C(=O)Nc2cccc(S(=O)(=O)NC3=NCCCCC3)c2)cc1 | inconclusive [inhibitor, partial curve]

Row | SMILES | Potency
24 | COc1cc(C(=O)NCc2cc3ccccc3n2C)cc(OC)c1OC | inactive
25 | O=C(Nc1cccc(O)c1)c1cccc(S(=O)(=O)N2CCCCCC2)c1 | inconclusive [inhibitor, single point]
26 | COc1ccc(/C=C2\SC(=O)N(CCNC(=O)Cc3coc4cc(OC)ccc34)C2=O)cc1 | inconclusive [inhibitor, partial curve]
27 | COc1cccc(CN2CCNC(=O)C2CC(=O)NCCn2ccc3ccccc32)c1OC (stereo not given) | inactive
28 | CC(=O)N(Cc1cc(=O)[nH]c2ccccc12)c1ccccc1 | inactive
29 | CCCc1cnc(N2CCN(C(=O)c3ccccc3)CC2)nc1 | inconclusive [inhibitor, partial curve]
30 | O=C(CNCc1ccccc1)Nc1ccccc1-c1ccccc1 | inactive
31 | O=C(NCCCO)c1ccc2[nH]c3c(c2c1)CCCC3 | inconclusive [inhibitor, partial curve]
32 | CC(SC1=Nc2ccccc2C2CC=NN12)C(=O)NC1(C#N)CCCCC1 (stereo not given) | inconclusive [inhibitor, single point]
33 | COc1ccc2cc(C(=O)C3CCCN(Cc4cnc(N5CCOCC5)s4)C3)ccc2c1 (stereo not given) | inconclusive [inhibitor, single point]
34 | CC1CCN(CCCNC(=O)c2cc3c(Cl)nc4ccccc4c3s2)CC1 | active: 12.6 µM
35 | O=C(CN1C(=O)c2ccccc2S1(=O)=O)N1CCN(c2ccccc2F)CC1 | inactive
36 | CC(C)(C)c1ccc2c(c1)OC(C(=O)N/N=C\c1ccc[nH]1)CO2 (stereo not given) | active: 1 µM
37 | Cc1cc(/C=N/NC(=O)c2cccc(N(C)C)c2)c(C)n1-c1cc(C(=O)O)cc(C(=O)O)c1 | inconclusive [inhibitor, partial curve, poor fit]
38 | COc1cccc(-c2noc(C3CCCN(C(=O)c4ccccc4OC)C3)n2)c1 (stereo not given) | inconclusive [inhibitor, single point]
39 | CN(C)CCN=Cc1c(O)n(Cc2ccccc2)c(=O)c2ccccc12 | inconclusive [inhibitor, partial curve]
40 | Cc1ccc(NC(=O)c2cccc(S(=O)(=O)N3CCc4ccccc4C3)c2)nc1 | inconclusive [inhibitor, partial curve]
41 | O=C(CSc1nc2ccccc2n1S(=O)(=O)c1cccc([N+](=O)[O-])c1)NCc1cccs1 | inactive
42 | COc1ccc2[nH]cc(CCNS(=O)(=O)c3ccccc3)c2c1 | inconclusive [inhibitor, single point]
43 | CC1CCCCN1CCCNC(=O)c1nn(C)c2c1CSc1ccccc1-2 (stereo not given) | inconclusive [inhibitor, single point]
44 | Cc1c(OCC(=O)NCC(O)c2ccccc2)ccc2c3c(c(=O)oc12)CCCC3 (stereo not given) | inconclusive [inhibitor, partial curve]
45 | Cn1c(N)c(C(=O)COC(=O)c2cc3ccccc3cc2O)c(=O)n(C)c1=O | inconclusive [inhibitor, single point]
